# Laboratory results published in the supplement of paper PMC8728848.
# This is one part of the list.
# B1: Gz-CVNH (Gibberella zeae) (protein)
# chain: MGSSHHHHHHSSGLVPRGSHMGNFHESSNNIWLEDGHILHAECGNGEGDYVESTLDLDYYIGNDDGSFSWGGENFSGSASNITLDIEGDDNIPVLRAELNPMDGDPVEANVNLSERIGNDCGTLIFLA
# Tests used:
# Experiment in all cases: glycan array binding signal (z-score within array); higher = stronger binding
# Details in all cases: glycan notation: IUPAC condensed, linker removed
# [1] = biological target: Neu5Ac(a2-3)Gal(b1-4)GlcNAc(b1-3)GalNAc
# Procedure, shortened: (§1)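 Glycan array binding is given as a within-array Z-score, which can be read as non-binding when negative. The arrays, 3228 of them, came from the Consortium for Functional Glycomics database and were retained only where the protein sequence was available. Z-scores were averaged across arrays of the same protein sequence at different concentrations or buffers and across linkers.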
# [2] = biological target: Neu5Ac(a2-3)Gal(b1-4)GlcNAc(b1-6)[Gal(b1-3)]GalNAc
# Procedure, shortened: as §1
# [3] = biological target: Neu5Ac(a2-3)Gal(b1-4)GlcNAc(b1-6)[Neu5Ac(a2-3)Gal(b1-3)]GalNAc
# Procedure, shortened: as §1
# [4] = biological target: Neu5Ac(a2-3)Gal(b1-4)GlcNAc6S
# Procedure, shortened: as §1
# [5] = biological target: Neu5Ac(a2-3)Gal(b1-4)[Fuc(a1-3)]GlcNAc
# Procedure, shortened: as §1
# [6] = biological target: Neu5Ac(a2-3)Gal(b1-4)[Fuc(a1-3)]GlcNAc(b1-3)Gal
# Procedure, shortened: as §1
# [7] = biological target: Neu5Ac(a2-3)Gal(b1-4)[Fuc(a1-3)]GlcNAc(b1-3)Gal(b1-4)GlcNAc
# Procedure, shortened: as §1
# [8] = biological target: Neu5Ac(a2-3)Gal(b1-4)[Fuc(a1-3)]GlcNAc(b1-3)Gal(b1-4)[Fuc(a1-3)]GlcNAc(b1-3)Gal(b1-4)[Fuc(a1-3)]GlcNAc
# Procedure, shortened: as §1
# [9] = biological target: Neu5Ac(a2-3)Gal(b1-4)[Fuc(a1-3)]GlcNAc(b1-3)GalNAc
# Procedure, shortened: as §1
# [10] = biological target: Neu5Ac(a2-3)Gal(b1-4)[Fuc(a1-3)]GlcNAc(b1-6)[Gal(b1-3)]GalNAc
# Procedure, shortened: as §1
# [11] = biological target: Neu5Ac(a2-3)Gal(b1-4)[Fuc(a1-3)]GlcNAc6S
# Procedure, shortened: as §1
# [12] = biological target: Neu5Ac(a2-3)Gal6S(b1-4)GlcNAc
# Procedure, shortened: as §1
# [13] = biological target: Neu5Ac(a2-3)Gal6S(b1-4)[Fuc(a1-3)]GlcNAc
# Procedure, shortened: as §1
# [14] = biological target: Neu5Ac(a2-3)GalNAc
# Procedure, shortened: as §1
# [15] = biological target: Neu5Ac(a2-3)GalNAc(b1-4)GlcNAc
# Procedure, shortened: as §1
# [16] = biological target: Neu5Ac(a2-3)[GalNAc(b1-4)]Gal(b1-4)Glc
# Procedure, shortened: as §1
# [17] = biological target: Neu5Ac(a2-3)[GalNAc(b1-4)]Gal(b1-4)GlcNAc
# Procedure, shortened: as §1
# [18] = biological target: Neu5Ac(a2-3)[GalNAc(b1-4)]Gal(b1-4)GlcNAc(b1-3)GalNAc
# Procedure, shortened: as §1
# [19] = biological target: Neu5Ac(a2-3)[Neu5Ac(a2-6)]GalNAc
# Procedure, shortened: as §1
# [20] = biological target: Neu5Ac(a2-6)Gal
# Procedure, shortened: as §1
# [21] = biological target: Neu5Ac(a2-6)Gal(b1-3)GlcNAc(b1-3)[Gal(b1-4)GlcNAc(b1-6)]Gal(b1-4)Glc
# Procedure, shortened: as §1
# [22] = biological target: Neu5Ac(a2-6)Gal(b1-4)Glc
# Procedure, shortened: as §1
# [23] = biological target: Neu5Ac(a2-6)Gal(b1-4)GlcNAc
# Procedure, shortened: as §1
# [24] = biological target: Neu5Ac(a2-6)Gal(b1-4)GlcNAc(b1-2)Man(a1-3)Man(b1-4)GlcNAc(b1-4)GlcNAc
# Procedure, shortened: as §1
# [25] = biological target: Neu5Ac(a2-6)Gal(b1-4)GlcNAc(b1-2)Man(a1-3)[Gal(b1-4)GlcNAc(b1-2)Man(a1-6)]Man(b1-4)GlcNAc(b1-4)GlcNAc
# Procedure, shortened: as §1
# [26] = biological target: Neu5Ac(a2-6)Gal(b1-4)GlcNAc(b1-2)Man(a1-3)[GlcNAc(b1-2)Man(a1-6)]Man(b1-4)GlcNAc(b1-4)GlcNAc
# Procedure, shortened: as §1
# [27] = biological target: Neu5Ac(a2-6)Gal(b1-4)GlcNAc(b1-2)Man(a1-3)[GlcNAc(b1-2)Man(b1-4)GlcNAc(b1-2)Man(a1-6)]Man(b1-4)GlcNAc(b1-4)GlcNAc
# Procedure, shortened: as §1
# [28] = biological target: Neu5Ac(a2-6)Gal(b1-4)GlcNAc(b1-2)Man(a1-3)[Man(a1-6)]Man(b1-4)GlcNAc(b1-4)GlcNAc
# Procedure, shortened: as §1
# [29] = biological target: Neu5Ac(a2-6)Gal(b1-4)GlcNAc(b1-2)Man(a1-3)[Neu5Ac(a2-6)Gal(b1-4)GlcNAc(b1-2)Man(a1-6)]Man(b1-4)GlcNAc(b1-4)GlcNAc
# Procedure, shortened: as §1
# [30] = biological target: Neu5Ac(a2-6)Gal(b1-4)GlcNAc(b1-2)Man(a1-6)Man(b1-4)GlcNAc(b1-4)GlcNAc
# Procedure, shortened: as §1
# [31] = biological target: Neu5Ac(a2-6)Gal(b1-4)GlcNAc(b1-2)Man(a1-6)[Gal(b1-4)GlcNAc(b1-2)Man(a1-3)]Man(b1-4)GlcNAc(b1-4)GlcNAc
# Procedure, shortened: as §1
# [32] = biological target: Neu5Ac(a2-6)Gal(b1-4)GlcNAc(b1-2)Man(a1-6)[GlcNAc(b1-2)Man(a1-3)]Man(b1-4)GlcNAc(b1-4)GlcNAc
# Procedure, shortened: as §1
# [33] = biological target: Neu5Ac(a2-6)Gal(b1-4)GlcNAc(b1-2)Man(a1-6)[Man(a1-3)]Man(b1-4)GlcNAc(b1-4)GlcNAc
# Procedure, shortened: as §1
# [34] = biological target: Neu5Ac(a2-6)Gal(b1-4)GlcNAc(b1-3)Gal(b1-3)GlcNAc
# Procedure, shortened: as §1
# [35] = biological target: Neu5Ac(a2-6)Gal(b1-4)GlcNAc(b1-3)Gal(b1-4)GlcNAc
# Procedure, shortened: as §1
# [36] = biological target: Neu5Ac(a2-6)Gal(b1-4)GlcNAc(b1-3)Gal(b1-4)GlcNAc(b1-3)Gal(b1-4)GlcNAc
# Procedure, shortened: as §1
# [37] = biological target: Neu5Ac(a2-6)Gal(b1-4)GlcNAc(b1-3)Gal(b1-4)[Fuc(a1-3)]GlcNAc(b1-3)Gal(b1-4)[Fuc(a1-3)]GlcNAc
# Procedure, shortened: as §1
# [38] = biological target: Neu5Ac(a2-6)Gal(b1-4)GlcNAc(b1-3)GalNAc
# Procedure, shortened: as §1
# [39] = biological target: Neu5Ac(a2-6)Gal(b1-4)GlcNAc6S
# Procedure, shortened: as §1
# [40] = biological target: Neu5Ac(a2-6)GalNAc
# Procedure, shortened: as §1
# [41] = biological target: Neu5Ac(a2-6)GalNAc(b1-4)GlcNAc
# Procedure, shortened: as §1
# [42] = biological target: Neu5Ac(a2-6)GlcNAc(b1-4)GlcNAc
# Procedure, shortened: as §1
# [43] = biological target: Neu5Ac(a2-6)GlcNAc(b1-4)GlcNAc(b1-4)GlcNAc
# Procedure, shortened: as §1
# [44] = biological target: Neu5Ac(a2-8)Neu5Ac
# Procedure, shortened: as §1
# [45] = biological target: Neu5Ac(a2-8)Neu5Ac(a2-3)Gal(b1-3)GalNAc(b1-4)[Neu5Ac(a2-8)Neu5Ac(a2-3)]Gal(b1-4)Glc
# Procedure, shortened: as §1
# [46] = biological target: Neu5Ac(a2-8)Neu5Ac(a2-3)Gal(b1-4)Glc
# Procedure, shortened: as §1
# [47] = biological target: Neu5Ac(a2-8)Neu5Ac(a2-3)[Gal(b1-3)GalNAc(b1-4)]Gal(b1-4)Glc
# Procedure, shortened: as §1
# [48] = biological target: Neu5Ac(a2-8)Neu5Ac(a2-3)[GalNAc(b1-4)]Gal(b1-4)Glc
# Procedure, shortened: as §1
# [49] = biological target: Neu5Ac(a2-8)Neu5Ac(a2-8)Neu5Ac
# Procedure, shortened: as §1
# [50] = biological target: Neu5Ac(a2-8)Neu5Ac(a2-8)Neu5Ac(a2-3)Gal(b1-4)Glc
# Procedure, shortened: as §1
# [51] = biological target: Neu5Ac(a2-8)Neu5Ac(a2-8)Neu5Ac(a2-3)[GalNAc(b1-4)]Gal(b1-4)Glc
# Procedure, shortened: as §1
# [52] = biological target: Neu5Ac(a2-8)Neu5Ac(a2-8)Neu5Ac(a2-8)Neu5Ac(a2-3)[GalNAc(b1-4)]Gal(b1-4)Glc
# Procedure, shortened: as §1
# [53] = biological target: Neu5Ac(b2-6)Gal(b1-4)GlcNAc
# Procedure, shortened: as §1
# [54] = biological target: Neu5Ac(b2-6)GalNAc
# Procedure, shortened: as §1
# [55] = biological target: Neu5Ac9Ac(a2-3)Gal(b1-3)GlcNAc
# Procedure, shortened: as §1
# [56] = biological target: Neu5Ac9Ac(a2-3)Gal(b1-4)GlcNAc
# Procedure, shortened: as §1
# [57] = biological target: Neu5Ac9Ac(a2-6)Gal(b1-4)GlcNAc
# Procedure, shortened: as §1
# [58] = biological target: Neu5Gc(a2-3)Gal(b1-3)GlcNAc
# Procedure, shortened: as §1
# [59] = biological target: Neu5Gc(a2-3)Gal(b1-3)[Fuc(a1-4)]GlcNAc
# Procedure, shortened: as §1
# [60] = biological target: Neu5Gc(a2-3)Gal(b1-4)Glc
# Procedure, shortened: as §1
# [61] = biological target: Neu5Gc(a2-3)Gal(b1-4)GlcNAc
# Procedure, shortened: as §1
# [62] = biological target: Neu5Gc(a2-3)Gal(b1-4)[Fuc(a1-3)]GlcNAc
# Procedure, shortened: as §1
# [63] = biological target: Neu5Gc(a2-6)Gal(b1-4)GlcNAc
# Procedure, shortened: as §1
# [64] = biological target: Neu5Gc(a2-6)GalNAc
# Procedure, shortened: as §1
# [65] = biological target: Neu5Gc(b2-6)Gal(b1-4)GlcNAc
# Procedure, shortened: as §1
binder,measurement,setting,value
B1,glycan array binding signal (z-score),[1],-0.158
same,glycan array binding signal (z-score),[2],-0.115
same,glycan array binding signal (z-score),[3],-0.127
same,glycan array binding signal (z-score),[4],-0.146
same,glycan array binding signal (z-score),[5],-0.139
same,glycan array binding signal (z-score),[6],-0.132
same,glycan array binding signal (z-score),[7],-0.028
same,glycan array binding signal (z-score),[8],-0.11
same,glycan array binding signal (z-score),[9],-0.034
same,glycan array binding signal (z-score),[10],0.047
same,glycan array binding signal (z-score),[11],-0.128
same,glycan array binding signal (z-score),[12],-0.143
same,glycan array binding signal (z-score),[13],-0.142
same,glycan array binding signal (z-score),[14],-0.152
same,glycan array binding signal (z-score),[15],-0.117
same,glycan array binding signal (z-score),[16],-0.155
same,glycan array binding signal (z-score),[17],-0.136
same,glycan array binding signal (z-score),[18],-0.104
same,glycan array binding signal (z-score),[19],-0.147
same,glycan array binding signal (z-score),[20],-0.103
same,glycan array binding signal (z-score),[21],-0.108
same,glycan array binding signal (z-score),[22],-0.13
same,glycan array binding signal (z-score),[23],-0.149
same,glycan array binding signal (z-score),[24],-0.135
same,glycan array binding signal (z-score),[25],-0.139
same,glycan array binding signal (z-score),[26],-0.048
same,glycan array binding signal (z-score),[27],-0.09
same,glycan array binding signal (z-score),[28],-0.122
same,glycan array binding signal (z-score),[29],-0.097
same,glycan array binding signal (z-score),[30],-0.134
same,glycan array binding signal (z-score),[31],-0.098
same,glycan array binding signal (z-score),[32],-0.097
same,glycan array binding signal (z-score),[33],-0.1
same,glycan array binding signal (z-score),[34],-0.109
same,glycan array binding signal (z-score),[35],-0.165
same,glycan array binding signal (z-score),[36],-0.154
same,glycan array binding signal (z-score),[37],-0.129
same,glycan array binding signal (z-score),[38],-0.117
same,glycan array binding signal (z-score),[39],-0.163
same,glycan array binding signal (z-score),[40],-0.153
same,glycan array binding signal (z-score),[41],-0.166
same,glycan array binding signal (z-score),[42],-0.16
same,glycan array binding signal (z-score),[43],-0.14
same,glycan array binding signal (z-score),[44],-0.124
same,glycan array binding signal (z-score),[45],-0.156
same,glycan array binding signal (z-score),[46],-0.088
same,glycan array binding signal (z-score),[47],-0.119
same,glycan array binding signal (z-score),[48],-0.125
same,glycan array binding signal (z-score),[49],-0.155
same,glycan array binding signal (z-score),[50],-0.128
same,glycan array binding signal (z-score),[51],-0.153
same,glycan array binding signal (z-score),[52],-0.142
same,glycan array binding signal (z-score),[53],-0.152
same,glycan array binding signal (z-score),[54],-0.108
same,glycan array binding signal (z-score),[55],-0.143
same,glycan array binding signal (z-score),[56],-0.13
same,glycan array binding signal (z-score),[57],-0.125
same,glycan array binding signal (z-score),[58],-0.126
same,glycan array binding signal (z-score),[59],-0.134
same,glycan array binding signal (z-score),[60],-0.113
same,glycan array binding signal (z-score),[61],-0.091
same,glycan array binding signal (z-score),[62],-0.121
same,glycan array binding signal (z-score),[63],-0.165
same,glycan array binding signal (z-score),[64],-0.142
same,glycan array binding signal (z-score),[65],-0.124
